Assay results taken from patent US7160888B2, “[1,8]naphthyridin-2-ones and related compounds for the treatment of schizophrenia” (Warner Lambert Company LLC, priority 2003, dated 2007).

Molecular target: dopamine D2 receptor (Homo sapiens, UniProt P14416)
Assay: biochemical
Conditions: D2 Ki (nM), 0.4 nM [3H]spiperone, CHO-hD2L membranes

UniProt P14416, sequence (P14416 whole entry): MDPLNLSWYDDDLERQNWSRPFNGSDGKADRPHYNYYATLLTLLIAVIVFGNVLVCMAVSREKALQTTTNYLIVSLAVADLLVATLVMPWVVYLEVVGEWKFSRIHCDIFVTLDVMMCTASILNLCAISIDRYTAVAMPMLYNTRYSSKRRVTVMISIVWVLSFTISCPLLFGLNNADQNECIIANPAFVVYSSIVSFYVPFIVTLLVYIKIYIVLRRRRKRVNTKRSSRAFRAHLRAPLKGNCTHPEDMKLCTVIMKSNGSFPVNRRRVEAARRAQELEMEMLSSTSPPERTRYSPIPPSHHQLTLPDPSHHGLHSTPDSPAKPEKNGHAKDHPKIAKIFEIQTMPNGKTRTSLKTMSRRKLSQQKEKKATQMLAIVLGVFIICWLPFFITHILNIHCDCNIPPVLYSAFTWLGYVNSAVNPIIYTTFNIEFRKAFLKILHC

| Compound | Ki (Table 1) [nM] | Ki (Table 2) [nM] |
| --- | --- | --- |
| CC1CC(=O)Nc2nc(OCCCCN3CCN(c4cccc(Cl)c4Cl)CC3)ccc21 (single isomer, unassigned) [Example D2a, 7-{4-[4-(2,3-Dichloro-phenyl)-piperazin-1-yl]-butoxy}-4-methyl-3,4-dihydro-1H-[1,8]naphthyridin-2-one] | 2.9 | – |
| CC1CC(=O)Nc2nc(OCCCCN3CCN(c4cccc(Cl)c4Cl)CC3)ccc21 (single isomer, unassigned) [Example D2b, 7-{4-[4-(2,3-Dichloro-phenyl)-piperazin-1-yl]-butoxy}-4-methyl-3,4-dihydro-1H-[1,8]naphthyridin-2-one] | 2 | – |
| CC1Cc2ccc(OCCCCN3CCN(c4cccc(Cl)c4Cl)CC3)nc2NC1=O (single isomer, unassigned) [Example D6a, 7-{4-[4-(2,3-Dichloro-phenyl)-piperazin-1-yl]-butoxy}-3-methyl-3,4-dihydro-1H-[1,8]naphthyridin-2-one] | 2.5 | – |
| O=C1CCc2ccc(OCCCCN3CCN(c4cccc5[nH]c(=O)oc45)CC3)nc2N1 [Example A1′, 7-{4-[4-(2-Oxo-2,3-dihydro-benzooxazol-7-yl)-piperazin-1-yl]-butoxy}-3,4-dihydro-1H-[1,8]naphthyridin-2-one] | – | 0.4 |
| O=C1CCc2ccc(OCCCCN3CCN(c4cccc5c4OCC5)CC3)nc2N1 [Example A2′, 7-{4-[4-(2,3-Dihydro-benzofuran-7-yl)-piperazin-1-yl]-butoxy}-3,4-dihydro-1H-[1,8]naphthyridin-2-one] | – | 1.4 |
| CC1(C)Cc2cccc(N3CCN(CCCCOc4ccc5c(n4)NC(=O)CC5)CC3)c2O1 [Example A3′, 7-{4-[4-(2,2-Dimethyl-2,3-dihydro-benzofuran-7-yl)-piperazin-1-yl]-butoxy}-3,4-dihydro-1H-[1,8]naphthyridin-2-one] | – | 1 |
| CC1(C)C=Cc2cccc(N3CCN(CCCCOc4ccc5c(n4)NC(=O)CC5)CC3)c2O1 [Example A5′, 7-{4-[4-(2,2-Dimethyl-2H-chromen-8-yl)-piperazin-1-yl]-butoxy}-3,4-dihydro-1H-[1,8]naphthyridin-2-one] | – | 2.2 |
| CC1(C)CCc2cccc(N3CCN(CCCCOc4ccc5c(n4)NC(=O)CC5)CC3)c2O1 [Example A6′, 7-{4-[4-(2,2-Dimethyl-chroman-8-yl)-piperazin-1-yl]-butoxy}-3,4-dihydro-1H-[1,8]naphthyridin-2-one] | – | 2 |
| O=C1CCc2ccc(OCCCCN3CCN(c4cccc5c4OC4(C=C5)CCCC4)CC3)nc2N1 [Example A7′, 7-{4-[4-(Spiro[chromene-2,1′-cyclopentan]-8-yl)-piperazin-1-yl]-butoxy}-3,4-dihydro-1H-[1,8]naphthyridin-2-one] | – | 4 |
| O=C1CCc2ccc(OCCCCN3CCN(c4ccc(F)c(Cl)c4Cl)CC3)nc2N1 [Example A8, 7-{4-[4-(2,3-Dichloro-4-fluoro-phenyl)-piperazin-1-yl]-butoxy}-3,4-dihydro-1H-[1,8]naphthyridin-2-one] | 10 | – |
| O=C1CCc2ccc(OCCCCN3CCN(c4cccc5c4OC4(CCCC4)CC5)CC3)nc2N1 [Example A8′, 7-{4-[4-(3,4-Dihydrospiro[chromene-2,1′-cyclopentan]-8-yl)-piperazin-1-yl]-butoxy}-3,4-dihydro-1H-[1,8]naphthyridin-2-one] | – | 1.4 |
| O=C1CCc2ccc(OCCCCN3CCN(c4ccc(F)cc4Cl)CC3)nc2N1 [Example A9, 7-{4-[4-(2-Chloro-4-fluoro-phenyl)-piperazin-1-yl]-butoxy}-3,4-dihydro-1H-[1,8]naphthyridin-2-one] | 5.5 | – |
| CC1C=Cc2cccc(N3CCN(CCCCOc4ccc5c(n4)NC(=O)CC5)CC3)c2O1 (stereo not drawn) [Example A9′, 7-{4-[4-(2-Methyl-2H-chromen-8-yl)-piperazin-1-yl]-butoxy}-3,4-dihydro-1H-[1,8]naphthyridin-2-one] | – | 1 |
| CC1CCc2cccc(N3CCN(CCCCOc4ccc5c(n4)NC(=O)CC5)CC3)c2O1 (stereo not drawn) [Example A10′, 7-{4-[4-(2-Methyl-chroman-8-yl)-piperazin-1-yl]-butoxy}-3,4-dihydro-1H-[1,8]naphthyridin-2-one] | – | 0.4 |
| O=C1CCc2ccc(OCCCCN3CCN(c4ccccc4-c4ccccc4)CC3)nc2N1 [Example A11, 7-[4-(4-Biphenyl-2-yl-piperazin-1-yl)-butoxy]-3,4-dihydro-1H-[1,8]naphthyridin-2-one] | 6.5 | – |
| O=C1CCc2ccc(OCCCCN3CCN(c4cccc5c4CCO5)CC3)nc2N1 [Example A11′, 7-{4-[4-(2,3-Dihydro-benzofuran-4-yl)-piperazin-1-yl]-butoxy}-3,4-dihydro-1H-[1,8]naphthyridin-2-one] | – | 3 |
| O=C1CCc2ccc(OCCCCN3CCN(c4cccc5c4COC5)CC3)nc2N1 [Example A12′, 7-{4-[4-(1,3-Dihydro-isobenzofuran-4-yl)-piperazin-1-yl]-butoxy}-3,4-dihydro-1H-[1,8]naphthyridin-2-one] | – | 2.8 |
| Cc1cc(N2CCN(CCCCOc3ccc4c(n3)NC(=O)CC4)CC2)c(Cl)cc1F [Example A13, 7-{4-[4-(2-Chloro-4-fluoro-5-methyl-phenyl)-piperazin-1-yl]-butoxy}-3,4-dihydro-1H-[1,8]naphthyridin-2-one] | 11.4 | – |

| Compound | Ki (Table 1) [nM] | Ki (Table 2) [nM] |
| --- | --- | --- |
| Cc1ccc(Cl)cc1N1CCN(CCCCOc2ccc3c(n2)NC(=O)CC3)CC1 [Example A14, 7-{4-[4-(5-Chloro-2-methyl-phenyl)-piperazin-1-yl]-butoxy}-3,4-dihydro-1H-[1,8]naphthyridin-2-one] | 5.5 | – |
| O=C1CCc2ccc(OCCCCN3CCN(c4cccc5c4CCOC5)CC3)nc2N1 [Example A14′, 7-[4-(4-Isochroman-5-yl-piperazin-1-yl)-butoxy]-3,4-dihydro-1H-[1,8]naphthyridin-2-one] | – | 3 |
| Cc1c(F)ccc(N2CCN(CCCCOc3ccc4c(n3)NC(=O)CC4)CC2)c1Cl [Example A15, 7-{4-[4-(2-Chloro-4-fluoro-3-methyl-phenyl)-piperazin-1-yl]-butoxy}-3,4-dihydro-1H-[1,8]naphthyridin-2-one] | 4.5 | – |
| CCc1cccc(N2CCN(CCCCOc3ccc4c(n3)NC(=O)CC4)CC2)c1 [Example A16, 7-{4-[4-(3-Ethyl-phenyl)-piperazin-1-yl]-butoxy}-3,4-dihydro-1H-[1,8]naphthyridin-2-one] | 3.5 | – |
| O=C1CCc2ccc(OCCCCN3CCN(c4cccc5c4OCCO5)CC3)nc2N1 [Example A16′, 7-{4-[4-(2,3-Dihydro-benzo[1,4]dioxin-5-yl)-piperazin-1-yl]-butoxy}-3,4-dihydro-1H-[1,8]naphthyridin-2-one] | – | 2.5 |
| COc1c(Cl)cccc1N1CCN(CCCCOc2ccc3c(n2)NC(=O)CC3)CC1 [Example A17, 7-{4-[4-(3-Chloro-2-methoxy-phenyl)-piperazin-1-yl]-butoxy}-3,4-dihydro-1H-[1,8]naphthyridin-2-one] | 1 | – |
| O=C1CCc2ccc(OCCCCN3CCN(c4cccc5c4OCCCO5)CC3)nc2N1 [Example A17′, 7-{4-[4-(3,4-Dihydro-2H-benzo[b][1,4]dioxepin-6-yl)-piperazin-1-yl]-butoxy}-3,4-dihydro-1H-[1,8]naphthyridin-2-one] | – | 1 |
| Cc1cccc(N2CCN(CCCCOc3ccc4c(n3)NC(=O)CC4)CC2)c1Oc1ccccc1 [Example A18, 7-{4-[4-(3-Methyl-2-phenoxy-phenyl)-piperazin-1-yl]-butoxy}-3,4-dihydro-1H-[1,8]naphthyridin-2-one] | 7.7 | – |
| O=C1CCc2ccc(OCCCCN3CCN(c4cccc5c4OC(F)(F)C(F)(F)O5)CC3)nc2N1 [Example A18′, 7-{4-[4-(2,2,3,3-Tetrafluoro-2,3-dihydro-benzo[1,4]dioxin-5-yl)-piperazin-1-yl]-butoxy}-3,4-dihydro-1H-[1,8]naphthyridin-2-one] | – | 1.4 |
| COc1cccc(N2CCN(CCCCOc3ccc4c(n3)NC(=O)CC4)CC2)c1OC [Example A19, 7-{4-[4-(2,3-Dimethoxy-phenyl)-piperazin-1-yl]-butoxy}-3,4-dihydro-1H-[1,8]naphthyridin-2-one] | 19.5 | – |
| O=C1CCc2ccc(OCCCCN3CCN(c4cccc5c4OC(F)(F)O5)CC3)nc2N1 [Example A19′, 7-{4-[4-(2,2-Difluoro-benzo[1,3]dioxol-4-yl)-piperazin-1-yl]-butoxy}-3,4-dihydro-1H-[1,8]naphthyridin-2-one] | – | 1.4 |
| CCOc1ccccc1N1CCN(CCCCOc2ccc3c(n2)NC(=O)CC3)CC1 [Example A20, 7-{4-[4-(2-Ethoxy-phenyl)-piperazin-1-yl]-butoxy}-3,4-dihydro-1H-[1,8]naphthyridin-2-one] | 0.7 | – |
| O=C1CCc2ccc(OCCCCN3CCN(c4cccc5c4OCCC5=O)CC3)nc2N1 [Example A20′, 7-{4-[4-(4-Oxo-chroman-8-yl)-piperazin-1-yl]-butoxy}-3,4-dihydro-1H-[1,8]naphthyridin-2-one] | – | 65.1 |
| CCOc1cccc(N2CCN(CCCCOc3ccc4c(n3)NC(=O)CC4)CC2)c1Cl [Example A21, 7-{4-[4-(2-Chloro-3-ethoxy-phenyl)-piperazin-1-yl]-butoxy}-3,4-dihydro-1H-[1,8]naphthyridin-2-one] | 6.7 | – |
| CC1(C)COc2c(cccc2N2CCN(CCCCOc3ccc4c(n3)NC(=O)CC4)CC2)C1=O [Example A21′, 7-{4-[4-(3,3-Dimethyl-4-oxo-chroman-8-yl)-piperazin-1-yl]-butoxy}-3,4-dihydro-1H-[1,8]naphthyridin-2-one] | – | 1 |
| COc1cccc(N2CCN(CCCCOc3ccc4c(n3)NC(=O)CC4)CC2)c1Cl [Example A22, 7-{4-[4-(2-Chloro-3-methoxy-phenyl)-piperazin-1-yl]-butoxy}-3,4-dihydro-1H-[1,8]naphthyridin-2-one] | 4.5 | – |
| CC1(C)COc2c(cccc2N2CCN(CCCCOc3ccc4c(n3)NC(=O)CC4)CC2)C1 [Example A22′, 7-{4-[4-(3,3-Dimethyl-chroman-8-yl)-piperazin-1-yl]-butoxy}-3,4-dihydro-1H-[1,8]naphthyridin-2-one] | – | 0.7 |
| CC(C)Oc1cccc(N2CCN(CCCCOc3ccc4c(n3)NC(=O)CC4)CC2)c1Cl [Example A23, 7-{4-[4-(2-Chloro-3-isopropoxy-phenyl)-piperazin-1-yl]-butoxy}-3,4-dihydro-1H-[1,8]naphthyridin-2-one] | 14.9 | – |
